# Data as given in PubChem BioAssay AID1963576 (National Center for Advancing Translational Sciences (NCATS), 2024).
# The whole screen tested about 46,000 compounds, of which about 60 (0.1%) were called active. About 3% were inconclusive and are not listed. Calls follow the shape of the dose curve; as a rule, active = well fitted inhibition curve with a large enough effect; inconclusive = small, poorly fitted or top-dose-only effect; inactive = no such curve, though single readings can be large or run the other way. Some of the results follow.
# Assay: Primary qHTS assay for Inhibitors of ovarian cancer metastasis using an organotypic tumor microenvironment (TME) model. Also: nearly all actives have a fitted effect of over 65% in size.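 As to activity change, negative = inhibition: plate controls were DMSO wells for no effect and tomatine positive control wells for full effect.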
# Settings: SKOV3ip1-GFP adhesion/invasion on 3D omental model, fluorescence; series mostly up to 45.8 µM; activity change, negative = inhibition: at the top concentration
# Outline: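 A 3D layer of primary human omental fibroblasts, mesothelial cells, fibronectin and collagen I, grown 48 hr, received SKOV3ip1-GFP cells in serum-free medium plus compounds at 0.36-46 umol/L. After 2 hr RT and 16 hr 37 C, fixed adherent GFP cells were counted; normalized to DMSO and tomatine.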
Compound,"activity change, negative = inhibition",outcome
Cc1ccccc1-c1nc(SCC(=O)NCC2CCCO2)c2c(=O)n(C)c(=O)n(C)c2n1 (stereo unspecified),inactive: 4.34%,–
Cc1cc(C(=O)Nc2cccc(F)c2)c2c(C)nn(-c3cccc(Cl)c3C)c2n1,inactive: -4.83%,–
CCOc1ccc(C(=O)Nc2ccccc2OCc2cc(=O)n3ccccc3n2)cc1,inactive: -4.35%,–
CCCNC(=O)c1cnc2sc(N3CCCCCC3)nn2c1=O,inactive: -0.201%,–
CCOC(=O)c1c(NC(=O)c2cc3nc(-c4ccccc4)cc(C(F)(F)F)n3n2)sc2c1CCC(C)C2 (stereo unspecified),inactive: 4.97%,–
Cc1ccccc1C(=O)OCc1cc(=O)n2c(C)csc2n1,inactive: 0.319%,–
CCc1nn(CC(=O)NCc2ccc(OC)c(OC)c2)c(=O)c2cc3sc(C)cc3n12,–,inactive
CN(C)c1ccc(C(=O)Nc2cccc(-c3nc4cccnc4s3)c2)cc1,inactive: 0.0106%,–
CCOC(=O)Cn1c(=O)n(-c2ccccc2OC)c2nc(-c3ccccc3F)nc(C(N)=O)c21,inactive: 6.84%,–
CCOC(=O)N1CCC(=C2c3ccc(Cl)cc3CCc3cccnc32)CC1,inactive: -3.49%,–
COc1ccc(CCNC(=O)c2nc(SCc3ccc(C)cc3)ncc2Cl)cc1OC,inactive: -19.4%,–
COc1ccccc1OCCCCn1c(-c2ccc(Cl)cc2)nc2ccccc2c1=O,inactive: -2.53%,–
COc1cccc2cc(-c3csc(-c4ccc(Cl)cc4)n3)c(=O)oc12,inactive: 0.391%,–
COc1cccc(Cn2c(SCC(=O)N(C)c3ccccc3)nc3ccccc32)c1,inactive: 2.87%,–
Cc1ccc(CCNC(=O)c2cc(C)nc3c2c(C)nn3-c2ccc(C)cc2)cc1,inactive: 5.94%,–
O=C(Nc1ccc(C(F)(F)F)cc1)C1CCN(c2cnccn2)CC1,inactive: 3.28%,–
Cc1ccc(CCNC(=O)c2ccc(CNS(=O)(=O)c3ccccc3)cc2)cc1,inactive: 7.42%,–
O=C(CN1CCSc2ccccc21)N1CCCCC1,–,inactive
CCOc1ccccc1NC(=O)Cn1c(=O)n(-c2ccc(F)cc2)c(=O)c2c3c(sc21)CN(C(C)=O)CC3,–,inactive
CCc1ccc(-n2nc(C)c3c(C(=O)Nc4cc(C)c(Cl)cc4OC)cc(C)nc32)cc1,inactive: 4.3%,–
CC(C)c1ccc(NC(=O)CCS(=O)(=O)c2cccc3nonc23)cc1,–,inactive

Compound,"activity change, negative = inhibition",outcome
CCc1ccc(-c2nn(CC(=O)NCc3ccccc3)c3c2cnc2ccc(C)cc23)cc1,inactive: 1.32%,–
CCc1ccc(-n2c(SCc3ccccc3C)nc3[nH]ncc3c2=O)cc1,–,inactive
Cc1ccc(-c2nc(CS(=O)(=O)CC(=O)NCc3ccc(Cl)cc3)c(C)o2)cc1,inactive: 16.7%,–
COC(=O)c1ccc(Cn2c(SCc3ccccc3)nc3ccncc32)cc1,inactive: 3.11%,–
Cc1ccccc1CNC(=O)c1ccc(CSc2nc3cccnc3n2Cc2ccccc2)cc1,inactive: 4.79%,–
O=C(Nc1ccc(F)c(C(F)(F)F)c1)Nc1nnc(-c2ccncc2)s1,inactive: -2.45%,–
CCc1c(C)c2ccc(O)c(CN3CCN(c4ccc(OC)cc4)CC3)c2oc1=O,inactive: -9.58%,–
Cc1cc(C)cc(NC(=O)Nc2ccccc2OCc2cc(=O)n3ccccc3n2)c1,inactive: 0.186%,–
COc1cc(NC(=O)Cn2cnc3c2c(=O)n(C)c(=O)n3C)c(OC)cc1Cl,inactive: -7.44%,–
CCOC(=O)c1c(NC(=O)/C(C#N)=C/c2ccccc2)sc2c1CCC2,inactive: -11.3%,–
CC(=O)Nc1ccc(NC(=O)c2cc3sccc3n2Cc2ccc(Cl)cc2)cc1,–,inactive
CCOc1ccc(NC(=O)c2c(NC(=O)c3ccccc3F)sc3c2CCC3)cc1,inactive: 2.25%,–
CCOc1cc(/C=C(\C#N)C(=O)Nc2ccc(C)cc2)ccc1OCc1cc(=O)n2nc(CC)sc2n1,–,inactive
CCOc1ccccc1NC(=O)c1c(NCc2cccs2)sc2c1CCCCC2,inactive: -10.6%,–
CCN(CC)S(=O)(=O)c1ccc(NC(=O)c2c(C)oc3ncnc(N4CCOCC4)c23)cc1,inactive: -1.26%,–
CCn1c(C)c(C)c2cc(C(=O)NCc3ccc(OC)cc3OC)ccc21,inactive: -9.88%,–
COc1ccc2c(c1)CC(C(=O)NCCCN1CCN(c3ccccc3F)CC1)CO2 (stereo unspecified),inactive: 10.5%,–
CCC(=O)N1CCc2cc(Br)cc(S(=O)(=O)CCC(=O)Nc3ccc(C)c(F)c3)c21,inactive: -2.23%,–
C#CCn1cnc2c(cnn2-c2ccc(F)cc2)c1=O,inactive: 3.99%,–
COc1cccc2c1Oc1ncccc1N(C(=O)CCC(=O)NC(C)C)C2,inactive: 4.71%,–
CCc1c(C)sc2c1CCN(C(=O)Nc1cc(Cl)c(OC)cc1OC)C2c1ccccc1 (stereo unspecified),inactive: -4.62%,–

Compound,"activity change, negative = inhibition",outcome
CCC(=O)N1CCc2cc(CNS(=O)(=O)c3ccc(NC(=O)CC(C)C)cc3)ccc21,–,inactive
CC(C)(C)c1ccc(C2=NC(C)(C)N(CC(=O)Nc3ccc(F)c(F)c3)C2=O)cc1,–,inactive
Cc1ccc(-c2nnc(Nc3ccc(OCC(N)=O)cc3)c3ccccc23)cc1S(=O)(=O)N(C)C,inactive: 2.31%,–
CCOc1ccc(Nc2nc(C)c(NC(=O)c3ccc(C)cc3)c(Nc3ccc(OCC)cc3)n2)cc1,inactive: -15.8%,–
COc1cc(NC(=O)CC(C)S(=O)(=O)c2ccc3c(c2)CCN3C(C)=O)cc(OC)c1OC (stereo unspecified),inactive: 19%,–
O=C(CSc1nnc2scc(-c3ccc(Cl)cc3)n12)Nc1cccc(C(F)(F)F)c1,inactive: 19.6%,–
CCN1CCN(c2ncc3c(n2)CCN(Cc2sccc2C)C3)CC1,inactive: -2.21%,–
Cc1ccccc1NC(=O)C(=O)NCC1(c2ccccc2)CCCC1,inactive: 3.88%,–
COc1ccc(Cl)cc1NC(=O)c1cnc(SC)nc1-c1ccccc1,inactive: 7.64%,–
CCc1cccc(-n2nnc(-c3nsc(NC(=O)c4ccc(C)cc4)n3)c2C)c1,–,inactive
Cc1sc2ncn(CC(=O)N3CCN(c4ccccc4)CC3)c(=O)c2c1S(=O)(=O)N1CCN(c2ncccn2)CC1,inactive: 20.1%,–
CN(CC(=O)Nc1ccc(Cl)cc1F)S(=O)(=O)c1ccc2c(c1)n(C)c(=O)c(=O)n2C,inactive: -34.4%,–
CCc1ccc(C(c2ccccc2)c2c[nH]c3ccc(C)cc23)s1 (stereo unspecified),inactive: 3.81%,–
CCn1c(=O)c2cc(C(=O)N3CCN(c4cccc(OC)c4)CC3)sc2c2ccccc21,–,inactive
CCOC(=O)Cc1ccc(NC(=O)N2CCc3c(sc4c3CCCC4)C2c2ccc(F)cc2)cc1 (stereo unspecified),inactive: -11.2%,–
COc1ccc(Cl)cc1Nc1nc2ccc(C(=O)c3ccccc3)cc2n2cnnc12,–,inactive
Cc1ccc(NC(=O)CN(C)S(=O)(=O)c2cccc3cccnc23)cc1F,–,inactive
CC(C(=O)Nc1ccccc1C(F)(F)F)n1nnc2sc3c(c2c1=O)CCCC3 (stereo unspecified),inactive: -0.581%,–
Cc1ccc(NC(=O)c2cccc(N3CCCS3(=O)=O)c2)cc1C,inactive: 5.72%,–
